{"source": "paper PMC11995724", "about": "“Antibiotic target discovery by integrated phenotypic and activity-based profiling of electrophilic fragments” (Cell chemical biology, 2025)", "note": "Out of some 3,200 compounds screened, about 110 (3.4%) showed an effect of 50% or more. The list shows a part of the results."}
{"system": "T1, V. cholerae SAD30", "T1 construct": "SAD30", "parameters": "species or system S. aureus MSSA476 (TSB) or V. cholerae SAD30 (LB); 384-well bacterial growth screen at 25 uM, OD600 relative to DMSO control", "conditions": "relative growth, OD600, LB; 25 µM; inhibitor", "units": {"% of control remaining": "%"}}
{"smiles": "C=CC(=O)N[C@H]1CCN(S(=O)(=O)c2ccccc2)C1", "note": "[3-P11, N-[(3S)-1-(benzenesulfonyl)pyrrolidin-3-yl]prop-2-enamide]", "% of control remaining": 106.205}
{"smiles": "C[C@@H](NC(=O)CCl)c1ccc(F)cc1", "note": "[6-G21, 2-chloro-N-[(1R)-1-(4-fluorophenyl)ethyl]acetamide]", "% of control remaining": 102.531}
{"smiles": "O=C(CCl)NC(Cc1ccccc1)C(=O)O", "note": "(stereo not drawn) [6-C13, 2-(2-chloroacetamido)-3-phenylpropanoic acid]", "% of control remaining": 88.7288}
{"smiles": "CCOC(=O)C1=C(C)NC(=O)N(C(=O)CCl)C1c1ccccc1", "note": "(stereo not drawn) [5-I05, ethyl 3-(2-chloroacetyl)-6-methyl-2-oxo-4-phenyl-1,2,3,4-tetrahydropyrimidine-5-carboxylate]", "% of control remaining": 97.3416}
{"smiles": "O=C(CCl)N(Cc1ccccc1)c1ccccc1", "note": "[4-G13, N-benzyl-2-chloro-N-phenylacetamide]", "% of control remaining": 94.0263}
{"smiles": "CCC(C)c1ccccc1NC(=O)C(C)Cl", "note": "(stereo not drawn) [4-O10, N-[2-(butan-2-yl)phenyl]-2-chloropropanamide]", "% of control remaining": 86.9528}
{"smiles": "CCCSc1nsc(NC(=O)CCl)n1", "note": "[4-G15, 2-chloro-N-[3-(propylsulfanyl)-1,2,4-thiadiazol-5-yl]acetamide]", "% of control remaining": 103.86}
{"smiles": "Cl.O=C(CCl)Nc1cccnn1", "note": "[6-O17, 2-chloro-N-(pyridazin-3-yl)acetamide hydrochloride]", "% of control remaining": 94.9474}
{"smiles": "C=CC(=O)Nc1cc(OC)cc(S(C)(=O)=O)c1", "note": "[1-H16, N-(3-methanesulfonyl-5-methoxyphenyl)prop-2-enamide]", "% of control remaining": 100.098}
{"smiles": "O=C1C=CC(=O)N1c1ccccc1Sc1ccccc1", "note": "[10-K12, 1-[2-(phenylsulfanyl)phenyl]-2,5-dihydro-1H-pyrrole-2,5-dione]", "% of control remaining": 28.0538}
{"smiles": "Cc1ccc(CNC(=O)C(C)Cl)c2ccccc12", "note": "(stereo not drawn) [7-O10, 2-chloro-N-[(4-methylnaphthalen-1-yl)methyl]propanamide]", "% of control remaining": 57.0957}
{"smiles": "CC(Cl)C(=O)Nc1nc(-c2cccc([N+](=O)[O-])c2)cs1", "note": "(stereo not drawn) [4-E08, 2-chloro-N-[4-(3-nitrophenyl)-1,3-thiazol-2-yl]propanamide]", "% of control remaining": 96.2691}
{"smiles": "CC(Cl)C(=O)N1CCCCCC1c1noc(-c2cnn(C)c2)n1", "note": "(stereo not drawn) [7-C05, 2-chloro-1-{2-[5-(1-methyl-1H-pyrazol-4-yl)-1,2,4-oxadiazol-3-yl]azepan-1-yl}propan-1-one]", "% of control remaining": 83.2645}
{"smiles": "O=C(CCl)NCC1CC(=O)N(c2ccccc2)C1", "note": "(stereo not drawn) [5-A09, 2-chloro-N-[(5-oxo-1-phenylpyrrolidin-3-yl)methyl]acetamide]", "% of control remaining": 106.252}
{"smiles": "Cc1nc(C)c(S(=O)(=O)N2CCSSCC2)s1", "note": "[10-M18, 5-[(2,4-dimethyl-1,3-thiazol-5-yl)sulfonyl]-1,2,5-dithiazepane]", "% of control remaining": 94.136}
{"smiles": "C=CC(=O)NC(C)c1nnc(-c2ccccc2F)s1", "note": "(stereo not drawn) [3-N13, N-{1-[5-(2-fluorophenyl)-1,3,4-thiadiazol-2-yl]ethyl}prop-2-enamide]", "% of control remaining": 95.6185}
{"smiles": "Cc1coc(C)c1C(=O)CCl", "note": "[10-M11, 2-chloro-1-(2,4-dimethylfuran-3-yl)ethan-1-one]", "% of control remaining": 109.41}
{"smiles": "C=CC(=O)N1CCC(C(=O)N2CCC(C(C)(C)O)CC2)CC1", "note": "[2-H14, 1-{4-[4-(2-hydroxypropan-2-yl)piperidine-1-carbonyl]piperidin-1-yl}prop-2-en-1-one]", "% of control remaining": 91.1223}
{"smiles": "COc1ccc(-n2c(C)c(C)c(C#N)c2NC(=O)CCl)cc1", "note": "[4-F20, 2-chloro-N-[3-cyano-1-(4-methoxyphenyl)-4,5-dimethyl-1H-pyrrol-2-yl]acetamide]", "% of control remaining": 105.413}
{"smiles": "O=C(Nc1cc(F)ccc1F)N1CCSSCC1", "note": "[10-H11, N-(2,5-difluorophenyl)-1,2,5-dithiazepane-5-carboxamide]", "% of control remaining": 95.3828}
{"smiles": "Cc1ncsc1C=C(C#N)C(=O)NCCc1ccccc1", "note": "[9-H06, 2-cyano-3-(4-methyl-1,3-thiazol-5-yl)-N-(2-phenylethyl)prop-2-enamide]", "% of control remaining": 84.6363}
{"smiles": "C=CC(=O)N(Cc1c(C)cccc1OC)C1CCCCNC1=O", "note": "(stereo not drawn) [1-F09, N-[(2-methoxy-6-methylphenyl)methyl]-N-(2-oxoazepan-3-yl)prop-2-enamide]", "% of control remaining": 86.9955}
{"smiles": "Cc1ncc(CNC(=O)C(C)Cl)n1C", "note": "(stereo not drawn) [5-J15, 2-chloro-N-[(1,2-dimethyl-1H-imidazol-5-yl)methyl]propanamide]", "% of control remaining": 98.3503}
{"smiles": "C=CC(=O)N1CCC(C(=O)NCc2c[nH]cn2)CC1", "note": "[2-G10, N-[(1H-imidazol-4-yl)methyl]-1-(prop-2-enoyl)piperidine-4-carboxamide]", "% of control remaining": 89.4239}
{"smiles": "N#CC(=Cc1ccc(C#N)cc1)C(=O)Nc1ccccc1Cl", "note": "[9-O17, N-(2-chlorophenyl)-2-cyano-3-(4-cyanophenyl)prop-2-enamide]", "% of control remaining": 91.4344}
{"smiles": "C=CC(=O)NCc1ccccc1N1CCCC(C(N)=O)C1", "note": "(stereo not drawn) [3-L21, 1-{2-[(prop-2-enamido)methyl]phenyl}piperidine-3-carboxamide]", "% of control remaining": 97.7357}
{"smiles": "CC(Cl)C(=O)NCc1cc(C(F)(F)F)cs1", "note": "(stereo not drawn) [7-J19, 2-chloro-N-{[4-(trifluoromethyl)thiophen-2-yl]methyl}propanamide]", "% of control remaining": 76.9205}
{"smiles": "CC(Cl)C(=O)NCc1nnc(C2CCC2)n1C", "note": "(stereo not drawn) [7-A10, 2-chloro-N-[(5-cyclobutyl-4-methyl-4H-1,2,4-triazol-3-yl)methyl]propanamide]", "% of control remaining": 85.6435}
{"smiles": "N#Cc1ccc2c(c1)CCN2C(=O)CCl", "note": "[5-N09, 1-(2-chloroacetyl)-2,3-dihydro-1H-indole-5-carbonitrile]", "% of control remaining": 93.4748}
{"smiles": "C=CC(=O)Nc1ccc(C(=O)C(F)F)cc1", "note": "[1-M20, N-[4-(2,2-difluoroacetyl)phenyl]prop-2-enamide]", "% of control remaining": 89.6861}
